# Reference: the supplement of paper PMC8728848
# This is one part of the list.
# B1: PX9937A-bvu-521-23-521 (Bacteroides vulgatus) (protein)
# chain: LDLAPEDYYGAGNFWKEASQPKAFMLGLHAQLRSYYDMFYTLGELRGGTQRVGTSSLNTSLNYADIRSQNISEDIPGISNWNGLYSPIMQVNHFIQEVENGCTFLDDATRSRYLGQAYGMRALYYFMLYRTFGGVPLITKVDILDGKPSADKFYVERATPEATMEFIKADINKSENYFGNNTSFDAYDWSRYATLMLKAEIYMWAAKVSITGFTATGATDLQTAKTALSGIIGHFELMDNFASIFSCDNKKNTEIIFAMPFIEGEASNDGGRFLYQDAVFLGQAYGRNGKVIEKDTLNLKGTGGVFRDEYTEDFWKTFKEGDSRRDATFMEYYMKNDNGTLSEFGCVMKKRIGTINSNDNRIYISDIPVYRYADALLMMAEIENGLNNPCASYINEVRKRAYGDTFEENKYTEGSYAENELAILQERDKEFVSEGKRWFDVLRMHDASGRSLVFSANANYPGTNPILGTEEAYKMLWPVNIGTLNVNPLLTQTPGYGKK
# What was measured:
# Test in all cases: glycan array binding signal (z-score within array); higher = stronger binding
# Conditions in all cases: glycan notation: IUPAC condensed, linker removed
# [1] = biological target: GlcNAc(b1-2)[GlcNAc(b1-4)]Man(a1-3)[GlcNAc(b1-4)][GlcNAc(b1-2)[GlcNAc(b1-6)]Man(a1-6)]Man(b1-4)GlcNAc(b1-4)GlcNAc
# Summary of the method: (§1)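 Glycan array data were curated from 3228 arrays in the Consortium for Functional Glycomics database and kept only where the protein sequence was available. Glycan names were converted to IUPAC-condensed notation, and columns mapping to the same glycan were averaged. The binding signal is a within-array Z-score, averaged across arrays of the same protein sequence at different concentrations or buffers and across linkers. Negative Z-scores can be read as non-binding.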
# [2] = biological target: GlcNAc(b1-2)[GlcNAc(b1-4)]Man(a1-3)[GlcNAc(b1-4)][GlcNAc(b1-2)[GlcNAc(b1-6)]Man(a1-6)]Man(b1-4)GlcNAc(b1-4)[Fuc(a1-6)]GlcNAc
# Summary of the method: as §1
# [3] = biological target: GlcNAc(b1-2)[GlcNAc(b1-6)]Man(a1-6)[GlcNAc(b1-2)Man(a1-3)]Man(b1-4)GlcNAc(b1-4)GlcNAc
# Summary of the method: as §1
# [4] = biological target: GlcNAc(b1-2)[GlcNAc(b1-6)]Man(a1-6)[GlcNAc(b1-2)Man(a1-3)]Man(b1-4)GlcNAc(b1-4)[Fuc(a1-6)]GlcNAc
# Summary of the method: as §1
# [5] = biological target: GlcNAc(b1-2)[GlcNAc(b1-6)]Man(a1-6)[GlcNAc(b1-4)][GlcNAc(b1-2)Man(a1-3)]Man(b1-4)GlcNAc(b1-4)GlcNAc
# Summary of the method: as §1
# GlcNAc(b1-3)Fuc = biological target: GlcNAc(b1-3)Fuc
# Summary of the method: as §1
# GlcNAc(b1-3)Gal = biological target: GlcNAc(b1-3)Gal
# Summary of the method: as §1
# [6] = biological target: GlcNAc(b1-3)Gal(b1-3)GalNAc
# Summary of the method: as §1
# GlcNAc(b1-3)Gal(b1-4)Glc = biological target: GlcNAc(b1-3)Gal(b1-4)Glc
# Summary of the method: as §1
# [7] = biological target: GlcNAc(b1-3)Gal(b1-4)GlcNAc
# Summary of the method: as §1
# [8] = biological target: GlcNAc(b1-3)Gal(b1-4)GlcNAc(b1-2)Man(a1-3)[GlcNAc(b1-3)Gal(b1-4)GlcNAc(b1-2)Man(a1-6)]Man(b1-4)GlcNAc(b1-4)GlcNAc
# Summary of the method: as §1
# [9] = biological target: GlcNAc(b1-3)Gal(b1-4)GlcNAc(b1-2)Man(a1-3)[GlcNAc(b1-3)Gal(b1-4)GlcNAc(b1-2)Man(a1-6)]Man(b1-4)GlcNAc(b1-4)[Fuc(a1-6)]GlcNAc
# Summary of the method: as §1
# [10] = biological target: GlcNAc(b1-3)Gal(b1-4)GlcNAc(b1-2)[GlcNAc(b1-3)Gal(b1-4)GlcNAc(b1-6)]Man(a1-6)[GlcNAc(b1-3)Gal(b1-4)GlcNAc(b1-2)Man(a1-3)]Man(b1-4)GlcNAc(b1-4)GlcNAc
# Summary of the method: as §1
# [11] = biological target: GlcNAc(b1-3)Gal(b1-4)GlcNAc(b1-3)Gal(b1-4)GlcNAc
# Summary of the method: as §1
# [12] = biological target: GlcNAc(b1-3)Gal(b1-4)GlcNAc(b1-3)Gal(b1-4)GlcNAc(b1-2)Man(a1-3)[GlcNAc(b1-3)Gal(b1-4)GlcNAc(b1-3)Gal(b1-4)GlcNAc(b1-2)Man(a1-6)]Man(b1-4)GlcNAc(b1-4)GlcNAc
# Summary of the method: as §1
# [13] = biological target: GlcNAc(b1-3)Gal(b1-4)GlcNAc(b1-3)Gal(b1-4)GlcNAc(b1-2)Man(a1-3)[GlcNAc(b1-3)Gal(b1-4)GlcNAc(b1-3)Gal(b1-4)GlcNAc(b1-2)Man(a1-6)]Man(b1-4)GlcNAc(b1-4)[Fuc(a1-6)]GlcNAc
# Summary of the method: as §1
# [14] = biological target: GlcNAc(b1-3)Gal(b1-4)GlcNAc(b1-3)Gal(b1-4)GlcNAc(b1-2)[GlcNAc(b1-3)Gal(b1-4)GlcNAc(b1-3)Gal(b1-4)GlcNAc(b1-6)]Man(a1-6)[GlcNAc(b1-3)Gal(b1-4)GlcNAc(b1-3)Gal(b1-4)GlcNAc(b1-2)Man(a1-3)]Man(b1-4)GlcNAc(b1-4)[Fuc(a1-6)]GlcNAc
# Summary of the method: as §1
# [15] = biological target: GlcNAc(b1-3)Gal(b1-4)GlcNAc(b1-3)Gal(b1-4)GlcNAc(b1-3)Gal(b1-4)GlcNAc(b1-2)Man(a1-3)[GlcNAc(b1-3)Gal(b1-4)GlcNAc(b1-3)Gal(b1-4)GlcNAc(b1-3)Gal(b1-4)GlcNAc(b1-2)Man(a1-6)]Man(b1-4)GlcNAc(b1-4)GlcNAc
# Summary of the method: as §1
# [16] = biological target: GlcNAc(b1-3)Gal(b1-4)GlcNAc(b1-3)Gal(b1-4)GlcNAc(b1-3)Gal(b1-4)GlcNAc(b1-2)Man(a1-3)[GlcNAc(b1-3)Gal(b1-4)GlcNAc(b1-3)Gal(b1-4)GlcNAc(b1-3)Gal(b1-4)GlcNAc(b1-2)Man(a1-6)]Man(b1-4)GlcNAc(b1-4)[Fuc(a1-6)]GlcNAc
# Summary of the method: as §1
# [17] = biological target: GlcNAc(b1-3)Gal(b1-4)GlcNAc(b1-3)Gal(b1-4)GlcNAc(b1-3)Gal(b1-4)GlcNAc(b1-2)[GlcNAc(b1-3)Gal(b1-4)GlcNAc(b1-3)Gal(b1-4)GlcNAc(b1-3)Gal(b1-4)GlcNAc(b1-6)]Man(a1-6)[GlcNAc(b1-3)Gal(b1-4)GlcNAc(b1-3)Gal(b1-4)GlcNAc(b1-3)Gal(b1-4)GlcNAc(b1-2)Man(a1-3)]Man(b1-4)GlcNAc(b1-4)[Fuc(a1-6)]GlcNAc
# Summary of the method: as §1
# [18] = biological target: GlcNAc(b1-3)Gal(b1-4)GlcNAc(b1-3)Gal(b1-4)GlcNAc(b1-3)Gal(b1-4)GlcNAc(b1-3)Gal(b1-4)GlcNAc(b1-2)Man(a1-3)[GlcNAc(b1-3)Gal(b1-4)GlcNAc(b1-3)Gal(b1-4)GlcNAc(b1-3)Gal(b1-4)GlcNAc(b1-3)Gal(b1-4)GlcNAc(b1-2)Man(a1-6)]Man(b1-4)GlcNAc(b1-4)GlcNAc
# Summary of the method: as §1
# [19] = biological target: GlcNAc(b1-3)Gal(b1-4)GlcNAc(b1-3)Gal(b1-4)GlcNAc(b1-3)Gal(b1-4)GlcNAc(b1-3)Gal(b1-4)GlcNAc(b1-2)Man(a1-3)[GlcNAc(b1-3)Gal(b1-4)GlcNAc(b1-3)Gal(b1-4)GlcNAc(b1-3)Gal(b1-4)GlcNAc(b1-3)Gal(b1-4)GlcNAc(b1-2)Man(a1-6)]Man(b1-4)GlcNAc(b1-4)[Fuc(a1-6)]GlcNAc
# Summary of the method: as §1
# [20] = biological target: GlcNAc(b1-3)Gal(b1-4)GlcNAc(b1-3)Gal(b1-4)GlcNAc(b1-3)Gal(b1-4)GlcNAc(b1-3)Gal(b1-4)GlcNAc(b1-2)[GlcNAc(b1-3)Gal(b1-4)GlcNAc(b1-3)Gal(b1-4)GlcNAc(b1-3)Gal(b1-4)GlcNAc(b1-3)Gal(b1-4)GlcNAc(b1-6)]Man(a1-6)[GlcNAc(b1-3)Gal(b1-4)GlcNAc(b1-3)Gal(b1-4)GlcNAc(b1-3)Gal(b1-4)GlcNAc(b1-3)Gal(b1-4)GlcNAc(b1-2)Man(a1-3)]Man(b1-4)GlcNAc(b1-4)[Fuc(a1-6)]GlcNAc
# Summary of the method: as §1
binder,measurement,setting,value
B1,glycan array binding signal (z-score),[1],-0.443
same,glycan array binding signal (z-score),[2],-0.497
same,glycan array binding signal (z-score),[3],0.445
same,glycan array binding signal (z-score),[4],-0.332
same,glycan array binding signal (z-score),[5],-0.532
same,glycan array binding signal (z-score),GlcNAc(b1-3)Fuc,2.63
same,glycan array binding signal (z-score),GlcNAc(b1-3)Gal,-0.011
same,glycan array binding signal (z-score),[6],-0.399
same,glycan array binding signal (z-score),GlcNAc(b1-3)Gal(b1-4)Glc,-0.241
same,glycan array binding signal (z-score),[7],-0.301
same,glycan array binding signal (z-score),[8],2.54
same,glycan array binding signal (z-score),[9],0.791
same,glycan array binding signal (z-score),[10],0.223
same,glycan array binding signal (z-score),[11],-0.397
same,glycan array binding signal (z-score),[12],0.306
same,glycan array binding signal (z-score),[13],0.476
same,glycan array binding signal (z-score),[14],-0.055
same,glycan array binding signal (z-score),[15],-0.408
same,glycan array binding signal (z-score),[16],-0.052
same,glycan array binding signal (z-score),[17],-0.128
same,glycan array binding signal (z-score),[18],-0.306
same,glycan array binding signal (z-score),[19],-0.708
same,glycan array binding signal (z-score),[20],0.603
